The values that follow come from patent US20210077638A1.

A word on the Kd: it is a measure of binding affinity in units of concentration. By koff is commonly meant the rate constant with which the complex falls apart. A word on the kon: it is the rate constant with which the complex forms.

Experiment [1] addresses hMET.mmh (human) (UniProt P08581). Kind of experiment: SPR Biacore T-200, antibody captured by anti-human Fc, 90 nM hMET.mmh, 25 C. On the technique in general: In SPR one partner is held on a chip, and binding of the other changes the refractive index at the surface.
Experiment [2] has the same target. Kind of experiment: SPR Biacore T-200, antibody captured by anti-human Fc, hMET.mmh injected, 25 C.

B1: MET x MET bispecific antibody H4H14639D (unconjugated) (bispecific antibody, V domains shown)
VH 1: EVQLVESGGGLVQPGTSLRLSCAASGFTFDDYAMHWVRQAPGKGLEWVSGITWNSYNIDYADSVKGRFTISRDNAKNSLYLQMNSLRAEDTALYYCAKDDDYSNYVYFDYWGQGTLVTVSS
VH 2: EVQLVESGGGLVQPGGSLRLSCAASGFIVTTNYMTWLRQAPGKGLEWVSLIYSSGHTYYADSVKGRFTISRHNSKNTLYLQMDSLRAEDTAVYYCASAFAADVFDIWGQGTMVTVSS
VL: [here about 100 residues without letters]
For B1, the Antigen Bound in experiment [1] stood at 26.4 RU/nm. In addition, in experiment [2], the dissociation constant Kd was 8.36 nM, the koff was 0.00272 s⁻¹, the kon turned out to be 325000 M⁻¹ s⁻¹ and the t1/2 was 4.25 min.

B2: H4H14639D-DFO DAR 2.14 (bispecific antibody, V domains shown)
VH 1: EVQLVESGGGLVQPGTSLRLSCAASGFTFDDYAMHWVRQAPGKGLEWVSGITWNSYNIDYADSVKGRFTISRDNAKNSLYLQMNSLRAEDTALYYCAKDDDYSNYVYFDYWGQGTLVTVSS
VH 2: EVQLVESGGGLVQPGGSLRLSCAASGFIVTTNYMTWLRQAPGKGLEWVSLIYSSGHTYYADSVKGRFTISRHNSKNTLYLQMDSLRAEDTAVYYCASAFAADVFDIWGQGTMVTVSS
VL: [here about 100 residues without letters]
modifications: p-SCN-Bn-DFO on primary amines, sites not stated; average DAR 2.14 per antibody
The molecule B2 returned an Antigen Bound in experiment [1] of 48.4 RU/nm. Besides, in experiment [2], the Kd was found to be 4.38 nM, the koff amounted to 0.00162 s⁻¹, the on-rate (kon) is 369000 M⁻¹ s⁻¹ and the t1/2 was 7.14 min.

B3: H4H14639D-DFO DAR 1.02 (bispecific antibody, V domains shown)
VH 1: EVQLVESGGGLVQPGTSLRLSCAASGFTFDDYAMHWVRQAPGKGLEWVSGITWNSYNIDYADSVKGRFTISRDNAKNSLYLQMNSLRAEDTALYYCAKDDDYSNYVYFDYWGQGTLVTVSS
VH 2: EVQLVESGGGLVQPGGSLRLSCAASGFIVTTNYMTWLRQAPGKGLEWVSLIYSSGHTYYADSVKGRFTISRHNSKNTLYLQMDSLRAEDTAVYYCASAFAADVFDIWGQGTMVTVSS
VL: [here about 100 residues without letters]
modifications: p-SCN-Bn-DFO on primary amines, sites not stated; average DAR 1.02 per antibody
Molecule B3 gave an Antigen Bound in experiment [1] of 47 RU/nm. In experiment [2], this molecule returned a Kd of 6.47 nM, a koff of 0.00183 s⁻¹, a kon of 284000 M⁻¹ s⁻¹ and a t1/2 of 6.3 min.

B4: H4H14639D-DFO DAR 0.59 (bispecific antibody, V domains shown)
VH 1: EVQLVESGGGLVQPGTSLRLSCAASGFTFDDYAMHWVRQAPGKGLEWVSGITWNSYNIDYADSVKGRFTISRDNAKNSLYLQMNSLRAEDTALYYCAKDDDYSNYVYFDYWGQGTLVTVSS
VH 2: EVQLVESGGGLVQPGGSLRLSCAASGFIVTTNYMTWLRQAPGKGLEWVSLIYSSGHTYYADSVKGRFTISRHNSKNTLYLQMDSLRAEDTAVYYCASAFAADVFDIWGQGTMVTVSS
VL: [here about 100 residues without letters]
modifications: p-SCN-Bn-DFO on primary amines, sites not stated; average DAR 0.59 per antibody
Consider B4, for which the Antigen Bound in experiment [1] is 26.7 RU/nm. Further, in experiment [2], the Kd was 7.9 nM, the koff is 0.00239 s⁻¹, the kon worked out at 302000 M⁻¹ s⁻¹ and the t1/2 was 4.84 min.
